# From the supplement of paper PMC6531468
# Some of the results follow. Read counts after selection give these values, which scatter widely. Scores sum up all selected molecules that hold the word; the word was not tested alone.
# Legend:
# Assay in all cases: 6-mer SELEX enrichment z-score vs GST control; IMP3 is the RNA-binding protein IGF2BP3; higher = more enriched by binding
# IMP3 RRM1-2 = conditions: construct: RRM1-2 (1-163); SELEX round: R2
# Protocol: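 SELEX-seq with GST-tagged IMP3 RRM1-2 (Met1-Asn163) and an N40 RNA pool, round 2. 6-mer enrichment z-score normalised to GST SELEX. RNA written as DNA (T = U).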
# IMP3 full-length = IMP3 full-length (UniProt O00425); conditions: construct: FL IMP3 (1-579); SELEX round: R4
# Chain of UniProt O00425 (O00425 whole entry): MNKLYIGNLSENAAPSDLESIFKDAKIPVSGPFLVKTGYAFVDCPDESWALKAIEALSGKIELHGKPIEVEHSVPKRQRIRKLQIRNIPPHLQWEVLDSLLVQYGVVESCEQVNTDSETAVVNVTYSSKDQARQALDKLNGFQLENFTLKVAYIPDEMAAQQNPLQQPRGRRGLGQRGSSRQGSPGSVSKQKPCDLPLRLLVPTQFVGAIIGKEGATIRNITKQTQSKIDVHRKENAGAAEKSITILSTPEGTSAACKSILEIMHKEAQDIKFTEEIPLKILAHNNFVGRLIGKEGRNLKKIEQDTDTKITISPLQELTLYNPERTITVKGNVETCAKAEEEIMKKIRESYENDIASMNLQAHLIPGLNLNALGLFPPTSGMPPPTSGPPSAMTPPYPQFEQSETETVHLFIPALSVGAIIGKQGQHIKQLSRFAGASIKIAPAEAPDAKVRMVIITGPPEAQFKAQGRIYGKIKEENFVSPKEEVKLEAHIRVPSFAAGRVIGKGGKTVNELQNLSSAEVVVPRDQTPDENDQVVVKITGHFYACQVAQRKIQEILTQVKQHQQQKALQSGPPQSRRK
# Protocol: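 SELEX-seq with GST-tagged full-length IMP3 and an N40 RNA pool, round 4. Each 6-mer is scored as an enrichment z-score of sequence tags containing it, normalised to the matching GST SELEX round. RNA written as DNA (T = U).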
# IMP3 KH1-2 = conditions: construct: KH1-2 (164-376); SELEX round: R4
# Chain of IMP3 KH1-2 (chain, as listed by the source): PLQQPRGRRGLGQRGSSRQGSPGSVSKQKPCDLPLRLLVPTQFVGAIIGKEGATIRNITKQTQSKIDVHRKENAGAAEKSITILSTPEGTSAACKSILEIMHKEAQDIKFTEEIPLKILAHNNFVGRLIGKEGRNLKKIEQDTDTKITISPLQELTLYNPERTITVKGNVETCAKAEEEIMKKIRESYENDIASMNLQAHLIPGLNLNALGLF
# Protocol: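 SELEX-seq with GST-tagged IMP3 KH1-2 (Pro164-Phe376) and an N40 RNA pool, round 4 (stringent 300/600 mM KCl washes). 6-mer z-score of sequence-tag enrichment normalised to the corresponding GST SELEX round; RNA k-mers written as DNA (T for U).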
# IMP3 KH3-4 = conditions: construct: KH3-4 (377-579); SELEX round: R4
# Chain of IMP3 KH3-4 (chain, as listed by the source): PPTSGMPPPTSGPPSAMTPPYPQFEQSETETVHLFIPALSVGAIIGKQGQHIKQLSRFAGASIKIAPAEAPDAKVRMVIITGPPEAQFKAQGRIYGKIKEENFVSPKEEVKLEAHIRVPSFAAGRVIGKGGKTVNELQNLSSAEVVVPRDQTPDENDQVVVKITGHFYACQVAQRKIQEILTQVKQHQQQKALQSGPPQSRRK
# Protocol: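 SELEX-seq with GST-tagged IMP3 KH3-4 (Pro377-Lys579) and an N40 RNA pool, round 4. 6-mer z-score of sequence-tag enrichment normalised to the corresponding GST SELEX round; RNA k-mers written as DNA (T for U).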
# Chain of IMP3 RRM1-2 (chain, as listed by the source): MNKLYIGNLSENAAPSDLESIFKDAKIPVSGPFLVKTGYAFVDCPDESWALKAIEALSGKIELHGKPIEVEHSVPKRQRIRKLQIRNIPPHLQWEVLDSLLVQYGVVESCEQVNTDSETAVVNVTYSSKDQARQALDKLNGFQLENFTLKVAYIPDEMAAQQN
Sequence,6-mer SELEX enrichment z-score (IMP3 RRM1-2),6-mer SELEX enrichment z-score (IMP3 full-length),6-mer SELEX enrichment z-score (IMP3 KH1-2),6-mer SELEX enrichment z-score (IMP3 KH3-4)
AGGAGC,-0.111,0.003,-0.647,-0.533
AGTTCG,0.309,0.111,-0.09,0.089
AATGCG,-0.554,-0.719,-0.72,-0.369
GTCGAG,0.105,0.274,-0.445,-0.207
GCGGTG,0.178,0.311,0.187,0.273
CTCAAT,0.634,0.208,0.023,-0.149
GATAGC,-0.26,-0.129,-0.063,0.08
CCGTCA,0.243,0.705,-0.272,-0.632
GGTGTA,0.165,-0.215,-0.411,-0.228
TGAGTA,-0.163,-0.305,-0.292,-0.009
ACGGAT,-0.561,-0.01,0.129,0.435
CCTACA,0.459,-0.198,-0.068,-0.678
AGCTTT,0.181,0.003,0.063,0.125
TCATGC,0.871,0.978,0.29,0.04
GGTGAT,0.09,0.198,0.361,0.576
TCGTCT,0.493,0.267,-0.062,0.084
GACCGA,-1.67,-1.59,-1.73,-1.92
CTCAGT,0.459,0.38,-0.049,-0.148
CGCCGT,-0.115,0.245,-0.199,-0.385
GGGACT,-0.294,-0.156,-0.007,-0.069
TGTTCT,0.369,0.118,0.314,0.39
CCGGTC,-0.132,0.251,-0.046,-0.346
TCCTCC,-0.106,-0.348,0.437,-0.349
TCACGA,0.547,0.064,-0.762,-0.82

Sequence,6-mer SELEX enrichment z-score (IMP3 RRM1-2),6-mer SELEX enrichment z-score (IMP3 full-length),6-mer SELEX enrichment z-score (IMP3 KH1-2),6-mer SELEX enrichment z-score (IMP3 KH3-4)
TAACTT,-0.083,-0.084,0.965,1.16
ATTAAG,-0.188,-0.035,0.567,1.38
ATATCT,0.256,0.241,0.607,0.584
TAACTG,-0.557,-0.492,0.472,0.562
GTAGGA,0.957,-0.215,-0.375,-0.243
TCCGAG,-0.278,-0.431,-1.54,-1.52
AGGCCT,-0.006,0.109,-0.041,0.039
GACGAG,-0.977,-0.631,-1.49,-1.42
ACTGGT,0.107,-0.111,-0.172,-0.164
CAGCGA,-0.232,-0.21,-1.39,-1.41
ACTAGG,0.117,0.114,0.123,0.282
CTTTGC,0.185,-0.109,0.115,-0.015
TGACCT,-0.651,-1.05,-0.744,-0.917
AAGAAG,-1.36,-0.795,0.207,0.956
CTGGAC,-0.496,-0.316,-0.331,-0.598
CCCGTG,-0.582,-0.547,-0.683,-1.04
ATCCCG,-0.58,-0.498,-0.879,-1.34
GTGTAG,-0.015,-1.54,-1.78,-1.65
TCCCAT,0.127,-0.022,0.056,-0.318
CAGGCT,0.697,0.865,0.275,0.332
CAACCG,-0.605,-0.309,-0.573,-1.55
TGTCAG,0.234,0.291,-0.005,0.054
TTTCGA,0.133,-0.556,-0.717,-0.595
GCCGAC,-0.548,-0.342,-0.985,-1.28

Sequence,6-mer SELEX enrichment z-score (IMP3 RRM1-2),6-mer SELEX enrichment z-score (IMP3 full-length),6-mer SELEX enrichment z-score (IMP3 KH1-2),6-mer SELEX enrichment z-score (IMP3 KH3-4)
CGGGGA,-0.527,0.467,0.842,0.661
CAAGCG,-0.25,-0.916,-2.05,-1.94
ATCGGG,0.05,-0.025,-0.777,-0.614
GCAGCT,0.37,0.462,0.05,-0.065
ATCTAG,0.142,-0.126,-0.24,-0.079
TTAAGG,-0.022,-0.054,0.236,0.682
TTCATC,1.24,1.49,1.2,0.646
CCTCAA,-0.073,-0.709,-0.868,-1.3
ACTGAT,-0.518,-0.109,0.865,0.869
ATGAGG,-0.191,0.422,0.868,1.38
GCGTCT,0.728,0.538,-0.01,0.102
ATCATA,2.58,2.46,1.91,2.08
GAAAGG,-1.2,-0.521,0.076,0.579
CAGCGT,0.158,-1.28,-2.75,-2.64
GTCAGT,0.344,0.456,0.131,0.167
CTTGCC,0.17,-0.485,-0.628,-0.861
ACGCAG,0.245,0.549,0.035,-0.164
CCAAGA,-1.34,-1.93,-1.78,-1.82
GCACCC,-0.377,0.22,-0.451,-1.1
TCTACA,0.76,0.462,0.726,0.38
GCGGAC,-0.313,0.172,-0.616,-0.684
TGTAAA,-0.945,-0.816,0.011,0.695
CCCCCG,-0.865,-0.395,1.23,-0.646
GCATGC,0.664,1.06,0.404,0.197

Sequence,6-mer SELEX enrichment z-score (IMP3 RRM1-2),6-mer SELEX enrichment z-score (IMP3 full-length),6-mer SELEX enrichment z-score (IMP3 KH1-2),6-mer SELEX enrichment z-score (IMP3 KH3-4)
CCAGGT,0.058,0.03,-0.301,-0.384
TAAGTG,-0.169,-0.26,0.088,0.421
GTATCA,0.484,0.185,-0.368,-0.304
CGAGTC,-0.341,0.037,-0.887,-0.973
TAACCA,-0.143,-0.939,-0.128,-0.374
TACCTC,-0.096,-0.703,-0.794,-1.03
GCTATA,-0.035,0.154,0.724,1.01
ATCGAG,-0.096,-0.826,-1.94,-1.8
GAATAC,-0.851,-0.44,0.342,0.535
GTTAAT,0.001,-0.093,0.204,0.519
CGGTGC,0.077,0.104,-0.382,-0.434
TGCATA,0.375,0.616,0.537,0.606
CTCTTG,0.472,-0.288,-0.555,-0.483
AAAGAT,-1.65,-0.871,0.447,1.73
CCATTC,1.04,0.899,0.802,0.036
GTACTT,0.173,-0.253,-0.432,-0.344
TTTCTT,0.574,0.336,0.783,0.806
GGTCGG,0.469,1.56,1.04,0.937
CAGTAG,0.38,0.299,-0.188,-0.166
GCCTTC,0.289,0.031,0.043,-0.236
GCCTCG,0.032,-0.078,-0.801,-0.796
GACACT,0.254,0.199,0.162,-0.02
TACAAC,0.769,0.565,1.19,0.571
CTTGGC,0.322,0.042,-0.416,-0.458
